Screen size: about 390,000 compounds; about 17,000 (4.4%) were called active. The shares of active, inactive and inconclusive entries below differ from those in the screen. Calls follow the shape of the dose curve; as a rule, active = well fitted inhibition curve with a large enough effect; inconclusive = small, poorly fitted or top-dose-only effect; inactive = no such curve, though single readings can be large or run the other way. Where the call is inconclusive, the potency comes from a doubtful curve fit.
target: Lysine-specific demethylase 4A (Homo sapiens) (UniProt O75164); assay: qHTS Assay for Inhibitors of JMJD2A-Tudor Domain; settings: AlphaScreen JMJD2A-Tudor / H3K4me3 peptide binding; activity change, negative = inhibition: at 114 µM (top of the series); also: nearly all actives have a fitted effect of over 50% in size
UniProt O75164, sequence (O75164 whole entry, looked up, the tested form may be a part): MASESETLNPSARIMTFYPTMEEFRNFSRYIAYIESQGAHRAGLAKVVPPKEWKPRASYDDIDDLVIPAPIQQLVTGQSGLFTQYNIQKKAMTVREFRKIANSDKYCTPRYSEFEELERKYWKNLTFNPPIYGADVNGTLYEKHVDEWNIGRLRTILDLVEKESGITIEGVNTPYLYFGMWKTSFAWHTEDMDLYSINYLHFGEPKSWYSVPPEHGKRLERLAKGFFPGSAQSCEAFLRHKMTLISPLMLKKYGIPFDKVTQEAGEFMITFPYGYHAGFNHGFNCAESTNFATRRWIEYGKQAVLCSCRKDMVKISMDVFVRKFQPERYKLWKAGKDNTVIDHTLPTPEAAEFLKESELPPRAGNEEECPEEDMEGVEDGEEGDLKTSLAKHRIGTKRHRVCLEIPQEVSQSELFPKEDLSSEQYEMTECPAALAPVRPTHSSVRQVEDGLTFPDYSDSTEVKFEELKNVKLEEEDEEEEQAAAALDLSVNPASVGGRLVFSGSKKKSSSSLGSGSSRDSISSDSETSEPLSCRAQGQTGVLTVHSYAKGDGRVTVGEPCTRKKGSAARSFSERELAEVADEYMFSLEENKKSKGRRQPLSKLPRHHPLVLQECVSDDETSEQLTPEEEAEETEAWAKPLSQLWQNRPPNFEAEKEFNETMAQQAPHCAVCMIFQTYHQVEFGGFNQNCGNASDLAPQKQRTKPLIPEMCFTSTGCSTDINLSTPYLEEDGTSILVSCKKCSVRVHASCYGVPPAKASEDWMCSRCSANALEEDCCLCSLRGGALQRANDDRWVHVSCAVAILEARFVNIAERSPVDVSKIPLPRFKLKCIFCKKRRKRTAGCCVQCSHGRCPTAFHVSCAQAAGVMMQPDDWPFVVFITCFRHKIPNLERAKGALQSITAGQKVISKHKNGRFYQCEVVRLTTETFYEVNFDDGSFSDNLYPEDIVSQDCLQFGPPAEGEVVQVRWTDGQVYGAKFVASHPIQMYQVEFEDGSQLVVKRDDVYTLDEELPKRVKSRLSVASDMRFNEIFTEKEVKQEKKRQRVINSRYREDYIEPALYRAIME
% is scaled to controls: 0 for no effect and ±100 for the full control effect; potency is read from the fitted curve at half-maximal effect; tags tell the direction and shape of the fitted curve.

Row | SMILES | activity change, negative = inhibition | Potency
1 | COc1ccc(OC)c(NC(=O)/C=C/c2ccc(S(=O)(=O)N3CCOCC3)cc2)c1 | inactive: -34.2% | –
2 | Cc1ccsc1C(=O)N(Cc1nnc(-c2ccccc2Cl)o1)C1CC1 | inactive: -0.676% | –
3 | COc1ccccc1-n1cc(-c2ccc(C)cc2)[nH]c1=S | – | inconclusive: 44.7 µM [inhibitor, partial curve]
4 | CC1=NN(c2nc(N)nc(/C(C#N)=C/c3ccc([N+](=O)[O-])o3)n2)C(C)(C)C1 | – | inconclusive: 63.1 µM [inhibitor, partial curve]
5 | COc1ccccc1CNc1cc(-c2ccccc2)nc2nncn12 | inactive: -21.1% | –
6 | O=C(Nc1cc(S(=O)(=O)N2CCCCC2)ccc1N1CCOCC1)c1ccc(C(F)(F)F)cc1 | inactive: -21.5% | –
7 | COc1ccc(N2Cc3cccc(C(=O)Nc4ccc(C(C)C)cc4)c3C2=O)cc1 | – | inconclusive: 7.94 µM [inhibitor, full curve]
8 | CC(=O)c1ccc(C(=O)N(CCCN(C)C)c2nc3c(C)c(C)ccc3s2)cc1 | – | inconclusive: 56.2 µM [inhibitor, partial curve]
9 | CC(CC(=O)c1ccc(F)cc1)N1CCN(c2ccccc2)CC1 (configuration not stated) | – | inconclusive: 22.4 µM [inhibitor, full curve, poor fit]
10 | Cc1ccc(C)c(N2CCN(C(=O)c3ccc(CS(=O)Cc4cccc(Cl)c4)o3)CC2)c1 (configuration not stated) | – | inconclusive: 25.1 µM [inhibitor, full curve, poor fit]
11 | Cc1cc(C)c(C)c(S(=O)(=O)N2CCN(C(=O)c3ccco3)CC2)c1C | inactive: -12.5% | –
12 | Cc1ccc(Nc2nnc(SCC(=O)N(C)C3CCS(=O)(=O)C3)s2)cc1 (configuration not stated) | inactive: -14% | –
13 | CCCSc1ncccc1C(=O)O | inactive: -11% | –
14 | Cc1ccc(OCCn2c(CNc3cccc(C)c3)nc3ccccc32)cc1 | – | inconclusive: 31.6 µM [inhibitor, full curve]
15 | CCCN1CCc2nc(N3CCN(CC)CC3)ncc2C1 | – | inconclusive: 79.4 µM [inhibitor, single point]
16 | CC1(C)Cc2c(sc3[nH]c(=S)[nH]c(=O)c23)CO1 | – | active: 89.1 µM
17 | S=C(NN=C(C1CC1)C1CC1)Nc1ccccc1 | – | active: 50.1 µM
18 | Cc1ccc(C(=O)OCc2nnc(-c3ccccc3)o2)o1 | – | active: 89.1 µM
19 | CCOc1ccc(-c2csc(NC(=O)c3ccco3)n2)cc1 | inactive: -21.9% | –
20 | CCN1CCc2c(sc(NC(=O)c3ccc(C(=O)c4ccccc4)cc3)c2C(N)=O)C1 | – | inconclusive: 56.2 µM [inhibitor, partial curve]
21 | CCOC(=O)c1c(/N=C/N(C)C)sc(/C=N/Nc2ccccc2)c1-c1ccc(Cl)cc1 | – | inconclusive: 20 µM [inhibitor, single point]
22 | O=C(NNC(=S)Nc1ccc(Cl)cc1)c1ccccc1 | inactive: -16.3% | –
23 | CC(=O)Oc1ccc(/C=C2/C(=O)N(c3ccccc3)N=C2C)cc1 | – | inconclusive: 22.4 µM [inhibitor, full curve, poor fit]
24 | CCc1c(C)nc(SCc2cccnc2)[nH]c1=O | inactive: -16.1% | –

Row | SMILES | activity change, negative = inhibition | Potency
25 | O=C(Cc1cc(=O)oc2cc(O)ccc12)NCC1CCC(C(=O)O)CC1 (configuration not stated) | – | inconclusive: 39.8 µM [inhibitor, single point]
26 | COc1ccc2c(c1)Cc1sc(NC(=O)c3ccccc3Br)nc1-2 | – | inconclusive: 44.7 µM [inhibitor, partial curve]
27 | Cc1cc(C)cc(N(CC(=O)N2CCN(c3ccccc3)CC2)S(=O)(=O)c2c(C)noc2C)c1 | – | inconclusive: 25.1 µM [inhibitor, full curve]
28 | CC(NC(=O)COC(=O)c1cc([N+](=O)[O-])ccc1N1CCOCC1)c1ccc(F)cc1 (configuration not stated) | – | inconclusive: 25.1 µM [inhibitor, full curve, poor fit]
29 | O=C(CN1CCN(Cc2ccccc2)CC1)c1ccc(Br)cc1 | – | inconclusive: 63.1 µM [inhibitor, partial curve, poor fit]
30 | Cc1cccc(OCC(=O)Nc2ccc3c4c(cccc24)CC3)c1C | – | inconclusive: 20 µM [inhibitor, partial curve]
31 | Cc1cc2ccccc2n1CCNC(=O)C(C)Oc1ccccc1 (configuration not stated) | – | inconclusive: 79.4 µM [inhibitor, partial curve]
32 | COc1ccc(/C=N/NC(=O)c2ccoc2C)cc1CN1CCN(c2ccc(F)cc2)CC1 | – | inconclusive: 56.2 µM [inhibitor, partial curve]
33 | CCn1ccc2cc(S(=O)(=O)N3CCCN(C(=O)Nc4ccccc4C(F)(F)F)CC3)ccc21 | inactive: -13.7% | –
34 | Nc1c(C(=O)c2cccs2)oc2ccccc12 | inactive: -18.7% | –
35 | CCOc1ccc(S(=O)(=O)N(CC(=O)NCCSCc2ccc(C)cc2)c2ccccc2)cc1 | inactive: -10% | –
36 | CCOC(=O)Nc1c(C)n(C)n(-c2ccccc2)c1=O | inactive: -7.46% | –
37 | Cc1ccc(SCc2[nH]nc3c2C(c2ccco2)C(C#N)=C(N)O3)cc1 (configuration not stated) | – | inconclusive: 56.2 µM [inhibitor, partial curve, poor fit]
38 | CCN(C=NC1=NN(c2cccc(C(F)(F)F)c2)CC1)CC | – | active: 50.1 µM
39 | CCc1ccc(-c2nc(CSCC(=O)N3CCN(c4ccccn4)CC3)c(C)o2)cc1 | – | inconclusive: 35.5 µM [inhibitor, partial curve]
40 | CCC(=O)N(Cc1cc2cc(OC)ccc2[nH]c1=O)c1ccccc1C | – | inconclusive: 89.1 µM [inhibitor, single point]
41 | O=C(CSc1cccc[n+]1[O-])CSc1cccc[n+]1[O-] | inactive: 2.08% | –
42 | COc1cc(OC)cc(-c2nc3nc(C)c(CCC(=O)Nc4ccc(Cl)cc4)c(C)n3n2)c1 | inactive: -17.8% | –
43 | CCOc1cc(N2CCOCC2)c(OCC)cc1NC(=O)c1cc(S(=O)(=O)N2CCOCC2)ccc1Cl | – | inconclusive: 56.2 µM [inhibitor, partial curve]
44 | CN(C)C(CNC(=O)C1CCN(S(=O)(=O)c2ccccc2)CC1)c1ccccc1 (configuration not stated) | inactive: -7.35% [at 11.4 µM] | –
45 | COc1cc(OC)c2c(c1O)OC(c1ccccc1)CC2=O (configuration not stated) | – | inconclusive: 50.1 µM [inhibitor, partial curve]
46 | CCC(=O)c1ccc(OCCSc2ncccn2)cc1 | inactive: -7.63% [at 11.4 µM] | –
47 | CC(=O)c1c(O)cc(C)n(Nc2nc(C)cc(C)n2)c1=O | – | inconclusive: 79.4 µM [inhibitor, partial curve]

Reference: PubChem BioAssay AID504339 (National Center for Advancing Translational Sciences (NCATS), 2011)
